Test results taken from patent US11116735B2, “Use of substituted benzylideneguanidine derivatives as synergists for polymyxin antibiotics” (GUANGZHOU INSIGHTER BIOTECHNOLOGY CO., LTD., priority 2015, dated 2021).

Tested on: various colistin sulfate-resistant Gram-negative bacteria
Assay: MIC by doubling dilution, summary over resistant species
Settings: various concentrations of compound 3

**Q.** How did the “Change of the MIC of colistin sulfate where compound 3 was employed” value turn out when CC(C)Oc1ccc(C=NN=C(N)NN=Cc2ccc(OC(C)C)cc2)cc1 [Compound 3] was run?
**A.** The value was “decreased to various extents, in an obvious dosage-dependent way”.
